Reference: patent US12691262B2, “Method for treatment of airway stricture or stenosis” (Airiver Medical, Inc., priority 2021, dated 2026)
“And” between values parts separate entries of the source, which are not always exact repeats. Equal values may be shown once. Read-outs that look alike come from different tables or passages of the source.

Experiments:
[1] = Chronic preclinical study: nasal tissue paclitaxel; assay type: in vivo, sheep
Method: Examples 3 and 4 describe acute and chronic studies on the nasal tissue with 5 live sheep. In Examples 3 and 4, the nasal treatment sites were flushed with a solution that was saline or water, the balloon catheter was inserted to the nasal treatment site, the balloon catheter was soaked at the site to hydrate and activate the drug coating at the site of treatment, prior to inflation. The drug coated catheters were inflated at the target site for 3-5 minutes.

[2] = Treatment site (tracheobronchial) paclitaxel pharmacokinetics after drug coated balloon treatment; tissue assayed via HPLC-MS
[3] = in vivo; conditions: sheep, other: drug coated balloon inflated against the airway wall

- Total Paclitaxel (in nasal tissue) ([1]; 7 d, LT Nasal Tx 3 (anterior and inferior nasal cavity), DCB 12 × 30, 8 atm): 6.50 ng
- Total Paclitaxel (in nasal tissue) ([1]; 7 d, RT Nasal Tx 1 (superior nasal cavity), DCB 6 × 30, 6 atm): 0.201 ng
- Total Paclitaxel (in nasal tissue) ([1]; 14 d, RT Nasal Tx 1 (superior nasal cavity), DCB 10 × 30): 4.81 ng
- Total Paclitaxel (in nasal tissue) ([1]; 28 d, LT Nasal Tx 1 (superior nasal cavity), DCB 8 × 30): 0.316 ng
- Total Paclitaxel (in nasal tissue) ([1]; 28 d, RT Nasal Tx 2 (lateral nasal cavity), DCB 8 × 30): 0.213 ng
- concentration at 7 d ([1]; sheep, 3.5 μg/mm^2 of balloon surface, 7 d, LT Nasal Tx 3 (anterior and inferior nasal cavity), DCB 12 × 30, 8 atm, read-out: Conc. (paclitaxel in nasal tissue)): 11.4 ng/g
- concentration at 28 d ([1]; sheep, nasal tissue, left superior nasal cavity (LT Nasal Tx 1), 3.5 μg/mm^2 of balloon surface, 28 d, LT Nasal Tx 1 (superior nasal cavity), DCB 8 × 30, read-out: Conc. (paclitaxel in nasal tissue)): 0.962 ng/g
- concentration at 28 d ([1]; sheep, nasal tissue, right lateral nasal cavity (RT Nasal Tx 2), 3.5 μg/mm^2 of balloon surface, 28 d, RT Nasal Tx 2 (lateral nasal cavity), DCB 8 × 30, read-out: Conc. (paclitaxel in nasal tissue)): 0.469 ng/g
- concentration at 7 d ([1]; sheep, nasal tissue, right superior nasal cavity (RT Nasal Tx 1), 3.5 μg/mm^2 of balloon surface, 7 d, RT Nasal Tx 1 (superior nasal cavity), DCB 6 × 30, 6 atm, read-out: Conc. (paclitaxel in nasal tissue)): 0.448 ng/g
- concentration at 14 d ([1]; sheep, nasal tissue, right superior nasal cavity (RT Nasal Tx 1), 3.5 μg/mm^2 of balloon surface, 14 d, RT Nasal Tx 1 (superior nasal cavity), DCB 10 × 30, read-out: Conc. (paclitaxel in nasal tissue)): 11.2 ng/g
- Total Paclitaxel (in tissue) ([2]; 7 d, Trachea treatment site, 18 × 65 balloon, inflation 2 min): 312 ng and 372 ng and 389 ng
- AUC at the treated tissue ([2]; tracheal and bronchial treated tissue, sheep): 52.3 µg/day/g
- concentration at 7 d ([3]; trachea treatment site tissue, 12865 ug): 35.4 ng/g
- Cmax ([3]; treated tracheal and bronchial tissue, 3.5 μg paclitaxel/mm^2 of balloon surface): 6200 ng/g
- concentration at 28 day ([3]; treatment site tissue (tracheobronchial), 3.5 μg paclitaxel/mm^2 of balloon surface): 3.4 ng/g
Compound: CC(=O)O[C@H]1C(=O)[C@@]2(C)[C@H]([C@H](OC(=O)c3ccccc3)[C@]3(O)C[C@H](OC(=O)[C@H](O)[C@@H](NC(=O)c4ccccc4)c4ccccc4)C(C)=C1C3(C)C)[C@]1(OC(C)=O)CO[C@@H]1C[C@@H]2O [paclitaxel]
